In PubChem BioAssay AID493208 (National Center for Advancing Translational Sciences (NCATS), 2011):
In all, about 44,000 compounds went through this assay and about 340 (0.77%) were called active. Not shown: some 5% with an inconclusive outcome. Calls come from the whole dose curve; as a rule, active = well fitted inhibition curve with a large enough effect; inconclusive = small, poorly fitted or top-dose-only effect; inactive = flat fitted curve, though single readings scatter. The list shows a part of the results.

assay: Acumen qHTS Assay for Inhibitors of the mTORC1 Signaling Pathway in MEF (Tsc2-/-, p53-/-) Cells: Sytravon; details: phospho-rpS6 immunofluorescence/PI, 24 h; series mostly up to 38.3 µM; activity change, negative = inhibition: at the top concentration;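 note: plate controls were DMSO for no effect and rapamycin for full effect; nearly all actives have a fitted effect of over 50% in size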
Outline: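 Readout is phospho-S6 Alexa 488 signal normalized to PI per well, reported as % active cells with thresholds set from rapamycin (7.5 nM) and DMSO controls. Cells: Tsc2-/-, p53-/- MEFs, 24 hrs compound at 37 C; PI cell number serves as viability.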

Activity change, negative = inhibition, inactive:
Cc1cccc(CC(=O)NCc2nc3cccnc3n2Cc2ccc(F)cc2)c1 -0.884%
CCc1cc(=O)[nH]c(SCc2nc(-c3ccccc3)no2)n1 0.65%
Cc1cccc(C(=O)NC2=NC(c3ccc(Cl)cc3)CC(=O)N2)c1 (configuration not stated) -8.94%
O=C(Nc1cccc(Cl)c1)C1CCCN(c2ncnc3c2nc2n3CCCCC2)C1 (configuration not stated) -12.1%
CCOC(=O)C1CCC(CN(Cc2ccc(OC)cc2)S(=O)(=O)c2ccc(F)c(C(=O)Nc3c(C)cccc3C)c2)CC1 (configuration not stated) 6.43%
O=C(Cn1cnc2c(nc3n2CCCCC3)c1=O)Nc1ccc(F)c(Cl)c1 -5.62%
CS(=O)(=O)Nc1ccccc1C(=O)OCc1cc(=O)n2nc(C3CCCCC3)sc2n1 0%
Cc1cc(F)ccc1NC(=O)CS(=O)(=O)c1cccc2nsnc12 -1.67%
Cc1ccccc1Nc1c(-c2ccccc2)nc2cccc(C)n12 3.85%
CSc1ccc(CCNC(=O)c2cc3cc(S(=O)(=O)N4CCCCC4)ccc3n2C)cc1 2.18%
COc1ccc(CNc2nc(SCc3ccccc3Cl)nc3ccccc23)cc1 1.87%
COc1ccc(N2CC(NC(=O)C3CCCC3)CC2=O)cc1OC (configuration not stated) -0.393%
COc1ccc(CCNC(=O)c2cn(C)c3ccc(S(=O)(=O)N(C)C)cc3c2=O)cc1OC 5.7%
CC1CCCN(S(=O)(=O)c2cc3c4c(c2)CC(=O)N4CCC3)C1 (configuration not stated) -8.87%
CC(C)c1ccc(NC(=O)Cn2nnc(C(=O)NCc3ccc(Cl)cc3)c2N)cc1 -0.203%
CCN(C(=O)c1cn(CC(C)C)c(=O)c2cc(OC)c(OC)cc12)c1cc(OC)ccc1OC -1.55%
COc1ccc2c(c1)sc1ncc(C(=O)NCc3cccc(C)c3)c(=O)n12 -5.37%
CCc1ccc(C(=O)c2cn(CC(=O)Nc3cc(F)ccc3F)c3nc(C)ccc3c2=O)cc1 -4.43%
CCc1ccccc1NC(=O)Cn1ccn(Cc2ccccc2)c(=O)c1=O 0%
COc1ccc(NC(=O)CCc2nnc3n(Cc4ccc(C)cc4)c(=O)c4ccccc4n23)cc1 0.247%
CC1CCCCN1C(=O)CCS(=O)(=O)c1cc2c(cc1Cl)NC(=O)CO2 (configuration not stated) 3.98%
COc1cccc(CNCCCSc2nnnn2C)c1OC -3.32%
CCS(=O)(=O)c1nc(S(=O)(=O)c2ccc(C)cc2)c(NC)s1 3.49%
Cc1cccc(C(=O)N2CCc3cc(CNS(=O)(=O)c4ccc(F)c(Cl)c4)ccc32)c1 -7.93%
COc1ccc(NS(=O)(=O)c2ccc3[nH]c4c(c3c2)CCCCC4)cc1 -5.16%
CC(=O)Nc1c(C)nn(-c2ccccc2)c1N1CCC(C(=O)Nc2ccccc2F)CC1 18.9%
O=C(Nc1ccccc1)N(Cc1cccc(Cl)c1)c1ccccn1 -19%
CC(=O)c1ccc(N2CCN(C(=O)Nc3ccc(C(C)C)cc3)CC2)cc1 -7.36%
COc1ccc(CCNC(=O)c2ccc3c(c2)ncn3-c2ccc(C(C)C)cc2)cc1OC -1.5%
CC(C)c1ccc2occ(CC(=O)N(Cc3ccc(F)cc3)C3CCS(=O)(=O)C3)c2c1 (configuration not stated) -7.64%
Cn1c2ccccc2c2cnn(CC(=O)NCCCN3CCN(c4ccccc4F)CC3)c(=O)c21 0.038%
COc1ccc(NC(=O)c2ccco2)cc1NC(=O)c1c(OC)cccc1OC 0.417%
CCOc1ccc(CN2C(=O)c3ccccc3C2C(=O)NCCc2ccc(OC)c(OC)c2)cc1 (configuration not stated) 0.89%
COc1ccccc1NC(=O)C1=C(C)Nc2ncnn2C1c1cccn1C (configuration not stated) -1.9%
CCOC(=O)c1c(S(=O)(=O)N2CCC(C(=O)Nc3ccc(F)cc3F)CC2)c(C)n(C)c1C -13.3%
COc1ccc(CNC(=O)Cc2c(C)c3cc4c(C)coc4c(C)c3oc2=O)cc1OC 2.72%
COc1ccc(Cn2c(CO)cnc2SCc2ccccc2C)cc1 5.33%
CC1Cc2cc(S(=O)(=O)CCC(=O)NCc3ccccc3Cl)ccc2N1C(=O)C1CC1 (configuration not stated) -19.8%
CCOc1ccc(CNS(=O)(=O)c2ccc3c(c2)CCCN3C(C)=O)cc1 -0.0441%
Cc1ccc(C)c(NC(=O)C2CCN(c3cc(C)nc4c(-c5ccc(Cl)cc5)c(C)nn34)CC2)c1 1.99%
COc1ccc(-n2cc(C(=O)Oc3cc(C)cc(C)c3)c3ccccc3c2=O)cc1 0.248%
COc1cccc(NC(=O)Cn2cc(C(=O)c3ccco3)c3ccccc32)c1 0.484%
CCC(=O)N1CCc2cc(S(=O)(=O)Nc3cc(C)ccc3OC)ccc21 4.69%
CC(C)C(=O)Nc1ccc2nc(SCC(=O)N3CCc4ccccc43)sc2c1 -7.49%
Cc1ccc(-n2c(SCC(=O)c3ccccc3)nc3c([nH]c4ccccc43)c2=O)cc1 0.195%
COc1ccccc1CC(=O)Nc1ccc2nc(Nc3cccc(Cl)c3)cc(C)c2c1 0.656%
CC(C)c1ccc(NC(=O)Cn2cc(S(=O)(=O)Cc3ccccc3Cl)c3ccccc32)cc1 -11.7%
Cc1cc(C)cc(NC(=O)c2cc(S(=O)(=O)N3CCc4ccccc43)cn2C)c1 -9.1%
O=C(Nc1ccc2oc(-c3cccc(F)c3)nc2c1)c1ccc2ccccc2c1 6.51%
COc1ccccc1CNC(=O)c1ccc2c(c1)N(Cc1c(F)cccc1Cl)C(=O)CS2 1.27%
CCCCC(Sc1nc2cc3c(cc2c(=O)n1CCCC(=O)NCc1ccc2c(c1)OCO2)OCO3)C(=O)OCC (configuration not stated) -0.267%
O=C(CSc1ncc(S(=O)(=O)c2ccc(Br)cc2)c(=O)[nH]1)Nc1ccc2c(c1)OCCO2 -7.31%
COc1cccc(NC(=O)Cn2c(=O)n(CCCCC(=O)NCc3ccccc3Cl)c(=O)c3ccccc32)c1 -13.1%
CCOc1ccccc1N1CCN(S(=O)(=O)c2ccc(C3CCCCC3)cc2)CC1 -0.701%
CC1CCN(C(=O)CSc2nc3ccccc3nc2Cc2ccccc2)CC1 -11.3%
Cc1ccc(CNC(=O)Cn2c3ncccc3c(=O)n2-c2ccc(C)cc2)cc1 5.08%
CC(C)c1cc(-c2nc(-c3cccc(Cl)c3)no2)n[nH]1 -0.154%
COc1ccc(C)c2sc(N3CCN(C(=O)c4ccco4)CC3)nc12 3.27%
CCOc1ccc(CNC(=O)CSc2c3c(nc4ccc(Cl)cc24)CCCC3)cc1 -8.67%
COc1ccccc1N1CCN(c2cc(C)nc3nncn23)CC1 -19.5%
Cc1nn2c(=O)cc(COC(=O)c3ccc(NC(=O)COc4ccccc4F)cc3)nc2s1 0%
Cc1nc2c(c(C)nn2C(C)(C)C)c(C)c1CCC(=O)Nc1ccc(F)cc1 -9.2%
